Measurements published in the supplement of paper PMC3334620.
Over roughly 33,000 sequences, “E-score (-0.5 to 0.5)” has its median near -0.036; the highest 2% begin near 0.37. Some of the results follow.

target: T1, Yer064c (UniProt P40041); assay: PBM E-score (8-mer binding enrichment) (E-score (-0.5 to 0.5)); higher = stronger / more preferred TF binding; most listed sequences are background and not binding sites; conditions: protein concentration: 200 nM; construct: GST-full length
T1 sequence: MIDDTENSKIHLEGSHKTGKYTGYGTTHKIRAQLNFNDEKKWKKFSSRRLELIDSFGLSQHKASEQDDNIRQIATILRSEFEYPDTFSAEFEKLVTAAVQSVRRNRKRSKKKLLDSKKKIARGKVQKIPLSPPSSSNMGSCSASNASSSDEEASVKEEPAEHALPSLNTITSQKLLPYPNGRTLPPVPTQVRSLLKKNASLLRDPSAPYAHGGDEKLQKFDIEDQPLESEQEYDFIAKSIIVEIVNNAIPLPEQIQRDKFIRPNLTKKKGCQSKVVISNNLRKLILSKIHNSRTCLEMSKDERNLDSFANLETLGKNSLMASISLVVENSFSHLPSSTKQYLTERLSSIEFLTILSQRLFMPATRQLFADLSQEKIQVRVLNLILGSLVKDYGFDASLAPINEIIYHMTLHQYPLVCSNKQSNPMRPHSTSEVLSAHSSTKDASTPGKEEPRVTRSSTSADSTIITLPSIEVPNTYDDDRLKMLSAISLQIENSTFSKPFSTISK
In short: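 Yeast transcription factors carrying a GST tag, as full-length proteins or DNA-binding domains, were produced by PURExpress in vitro transcription/translation. About 100-200 nM protein was applied to universal all-10-mer Agilent arrays, double-stranded by primer extension on fresh or once-stripped slides. Bound protein was detected with fluorescent anti-GST, and scans were normalised with masliner. The Universal PBM Analysis Suite gave each ungapped eight-base word, pooled with its reverse complement, an E-score, a modified Wilcoxon-Mann-Whitney statistic.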

Compared with ACCTGTAT, AAAATCGG is higher in “PBM E-score” value: -0.138 for the first, -0.131 for the second.

First: GTCCTGGA
Second: GACGATGA
The “PBM E-score” value of the first is lower: -0.0558 for the first, 0.285 for the second.

Compared with CCGCGTTC, CTGTCTAC is higher in “PBM E-score” value: -0.274 for the first, -0.0153 for the second.

Going from GACGTTTA to GAAAAATC, the “PBM E-score” value rises from -0.0582 to 0.0691.

Compared with ACTGGCCG, AGGATGTA is higher in “PBM E-score” value: -0.205 for the first, -0.0927 for the second.

First: CGTAGAAC
Second: ATAGAAGC
The “PBM E-score” value of the first is lower: -0.146 for the first, -0.0871 for the second.

First: ACAATCTC
Second: AACTCACC
The “PBM E-score” value of the first is lower: -0.108 for the first, 0.275 for the second.

Going from CAGTACCG to TAAGCAAA, the “PBM E-score” value rises from -0.231 to -0.0484.

Compared with GTTTGAGA, GCAACGGA is lower in “PBM E-score” value: 0.0063 for the first, -0.0959 for the second.

Compared with GTATGTCA, GAGCAGCC is lower in “PBM E-score” value: 0.0569 for the first, -0.0909 for the second.

Going from AGCCGTAA to GCGCACCA, the “PBM E-score” value falls from 0.0882 to -0.257.

Going from CCTGCTAA to TCTAAACA, the “PBM E-score” value rises from -0.25 to 0.00267.

Compared with ACAGCCAG, ATTCATCA is higher in “PBM E-score” value: -0.0658 for the first, 0.162 for the second.

Compared with AACACTGG, CGATGGAA is lower in “PBM E-score” value: -0.0679 for the first, -0.116 for the second.

Going from ACTCTTCC to CGGAAGGC, the “PBM E-score” value falls from 0.223 to -0.196.

Compared with ACGCGGCC, GAGTAGAA is higher in “PBM E-score” value: -0.211 for the first, 0.0321 for the second.

Going from GAAGACCA to ATAAGAGC, the “PBM E-score” value falls from 0.0465 to -0.114.

Compared with AGGTAGTA, ACGCAGCG is lower in “PBM E-score” value: 0.0729 for the first, -0.285 for the second.

Compared with CAGCCCGA, AGTCATTC is higher in “PBM E-score” value: -0.0877 for the first, 0.482 for the second.

First: ATGCGACG
Second: AGGAACAC
The “PBM E-score” value of the first is lower: -0.0574 for the first, -0.00719 for the second.

Going from CTTACGAA to TACTGGCA, the “PBM E-score” value falls from 0.0843 to -0.0563.

First: GAGGGCAA
Second: AACCTACA
The “PBM E-score” value of the first is lower: -0.232 for the first, -0.0331 for the second.

First: TACTCGGA
Second: CACCTAGA
The “PBM E-score” value of the first is higher: 0.188 for the first, 0.00347 for the second.

First: AAGAGGAT
Second: ACAAGATC
The “PBM E-score” value of the first is higher: -0.0191 for the first, -0.147 for the second.

First: CTATGCAG
Second: AAAATTGT
The “PBM E-score” value of the first is lower: -0.0689 for the first, -0.0364 for the second.

First: TCCCTGCA
Second: GACGTGCC
The “PBM E-score” value of the first is higher: -0.0522 for the first, -0.264 for the second.

Compared with ATTAACGG, GTTGAGAA is higher in “PBM E-score” value: 0.0909 for the first, 0.151 for the second.

First: AGGGGGTC
Second: ATGGCCTA
The “PBM E-score” value of the first is lower: -0.406 for the first, -0.31 for the second.

First: GACCAATC
Second: GTGTCAGA
The “PBM E-score” value of the first is lower: -0.111 for the first, 0.179 for the second.

Compared with GTACTGCA, ACTGCTCT is higher in “PBM E-score” value: -0.0703 for the first, 0.117 for the second.

Compared with CCCGGGAG, AATAGTGC is lower in “PBM E-score” value: -0.0275 for the first, -0.0995 for the second.

Compared with CTACATCC, CATAAGTC is higher in “PBM E-score” value: -0.155 for the first, 0.297 for the second.

First: CAGTACAC
Second: CCCCAACC
The “PBM E-score” value of the first is higher: 0.0327 for the first, -0.144 for the second.

Going from GGACGTCC to GAAATGCC, the “PBM E-score” value rises from -0.318 to -0.309.

Going from AGAAAGAC to CAGAACAG, the “PBM E-score” value falls from 0.192 to -0.00858.

First: GATTTCGA
Second: AGCGGTGA
The “PBM E-score” value of the first is higher: 0.144 for the first, 0.0907 for the second.

Compared with ACTAAGAG, AGTAATAA is higher in “PBM E-score” value: 0.113 for the first, 0.204 for the second.

Going from AGGCCGTA to CGCATGCA, the “PBM E-score” value falls from 0.0443 to -0.0148.

First: AGTCCATC
Second: TATCGGAA
The “PBM E-score” value of the first is lower: 0.204 for the first, 0.215 for the second.

Compared with AATCCCAG, CTAGCGAC is higher in “PBM E-score” value: -0.0564 for the first, 0.158 for the second.

Going from GTCGCTTA to GTGCCCTA, the “PBM E-score” value falls from 0.218 to -0.317.

Going from CGTCGCGA to ACCTGGCT, the “PBM E-score” value falls from -0.101 to -0.167.

Going from AACATGAC to TCGGCTCA, the “PBM E-score” value falls from 0.283 to 0.134.

Compared with GAGTACGA, GCCATGGA is lower in “PBM E-score” value: 0.307 for the first, 0.0454 for the second.

Compared with GCAGTATA, GGTCGGTA is higher in “PBM E-score” value: -0.224 for the first, -0.162 for the second.

First: AGACTGAT
Second: CACTCTGC
The “PBM E-score” value of the first is higher: 0.219 for the first, -0.0532 for the second.

Compared with CGGGGGCC, GTCCGTGA is higher in “PBM E-score” value: -0.234 for the first, 0.156 for the second.

Going from CGTCAAGC to CAAGAAGG, the “PBM E-score” value rises from -0.169 to -0.15.

Going from AATGTTCA to GTGGACCA, the “PBM E-score” value falls from -0.0663 to -0.0966.

First: CGTTTGTC
Second: GATTGCCC
The “PBM E-score” value of the first is lower: -0.0205 for the first, 0.0184 for the second.

Compared with ACTGCTTC, CTAACCAC is higher in “PBM E-score” value: -0.286 for the first, 0.232 for the second.

Going from AGGACTAG to GATGCACC, the “PBM E-score” value falls from 0.275 to -0.233.

Going from TTCAAGAA to TCCTAGCA, the “PBM E-score” value falls from 0.169 to -0.168.

Compared with CCGAATGC, GGTTGTAA is higher in “PBM E-score” value: -0.255 for the first, -0.0256 for the second.

First: CGGGCCGA
Second: GCGGGGAA
The “PBM E-score” value of the first is lower: -0.176 for the first, -0.0375 for the second.

Compared with GAAGGCCC, CCTTCCCG is higher in “PBM E-score” value: -0.317 for the first, -0.152 for the second.

Going from AGAAAAAG to CTGCCAAG, the “PBM E-score” value falls from -0.0405 to -0.121.

Compared with AGTCAGGA, AGGGAAGC is lower in “PBM E-score” value: 0.417 for the first, -0.284 for the second.

Compared with TCGAGAAA, ACATAGCA is lower in “PBM E-score” value: -0.00532 for the first, -0.0756 for the second.

Compared with TAGGAATA, ACTGCTCG is higher in “PBM E-score” value: -0.0475 for the first, 0.0783 for the second.

Compared with CTATTTAA, AGTCTGAG is higher in “PBM E-score” value: 0.196 for the first, 0.266 for the second.

First: ATCGCGGG
Second: AGTTAAGG
The “PBM E-score” value of the first is lower: 0.00034 for the first, 0.102 for the second.

Going from ATTTTATG to CTACGTGC, the “PBM E-score” value falls from 0.00402 to -0.106.

Compared with GCAGAAGA, AGACATAA is higher in “PBM E-score” value: -0.16 for the first, 0.0973 for the second.

Going from CCAGTACG to GTCTTTAA, the “PBM E-score” value rises from -0.0016 to 0.194.

Going from CCGTATAG to ACACTCCC, the “PBM E-score” value falls from -0.0352 to -0.114.

Compared with CATTTTCA, GGTCCGTA is lower in “PBM E-score” value: 0.0573 for the first, -0.292 for the second.

First: CAGGAATA
Second: ATTTAATC
The “PBM E-score” value of the first is lower: 0.113 for the first, 0.366 for the second.

Going from CCAAGTTA to TTCCGAAA, the “PBM E-score” value falls from 0.0576 to -0.12.

Going from TAAGTACA to ATCATAAA, the “PBM E-score” value rises from 0.0696 to 0.25.

Compared with GGAATAAA, CGGACCTA is lower in “PBM E-score” value: 0.00873 for the first, -0.189 for the second.

Going from GGGTCCAA to GGATGGAA, the “PBM E-score” value falls from 0.00332 to -0.278.

Compared with AATGGCCT, ACAGCGTC is higher in “PBM E-score” value: -0.324 for the first, 0.0799 for the second.

Compared with CACTGGAG, AGGAGCCT is lower in “PBM E-score” value: -0.158 for the first, -0.34 for the second.

Compared with ATCAGCAG, CGGACGCC is lower in “PBM E-score” value: 0.0714 for the first, -0.192 for the second.

First: ACATCCGG
Second: GCTTGGGA
The “PBM E-score” value of the first is higher: -0.118 for the first, -0.125 for the second.

First: GGTTCGCA
Second: CTGGCTTA
The “PBM E-score” value of the first is lower: -0.1 for the first, -0.0807 for the second.

First: AATTTTAA
Second: ATTAAATG
The “PBM E-score” value of the first is lower: 0.0277 for the first, 0.156 for the second.

Compared with AATGAGTA, GCGGTGCA is lower in “PBM E-score” value: 0.389 for the first, -0.182 for the second.

Compared with ATAGCCAA, GGTAAAGA is lower in “PBM E-score” value: 0.0259 for the first, -0.00478 for the second.

Going from CTGTACCC to CGTCTGAA, the “PBM E-score” value rises from -0.0155 to 0.0534.

First: ACCTTCCG
Second: AAATGCCC
The “PBM E-score” value of the first is higher: -0.124 for the first, -0.188 for the second.

Going from ACGATTTG to CTATTAGC, the “PBM E-score” value falls from 0.152 to 0.123.

Going from AACTGGGT to ATCATTTC, the “PBM E-score” value rises from -0.0453 to 0.289.

Compared with ATACAACG, AGTACAAG is higher in “PBM E-score” value: -0.0924 for the first, 0.0542 for the second.

Going from AACACCAA to ACAGCACG, the “PBM E-score” value rises from -0.0476 to 0.064.
